Assay results: PubChem BioAssay AID686979 (National Center for Advancing Translational Sciences (NCATS), 2013)
“And” between values parts separate entries of the source, which are not always exact repeats. Equal values may be shown once. In all, about 420,000 compounds went through this assay and about 50,000 (12%) were called active. The shares of active, inactive and inconclusive entries below differ from those in the screen. The call rests on the fitted dose curve; in most records, active means well fitted inhibition curve with a large enough effect; inconclusive means small, poorly fitted or top-dose-only effect; inactive means flat fitted curve, though single readings scatter. No potency is given beside an inconclusive call; the fits are too rough. More than one record can exist for a structure, and the calls need not agree.

Assay: qHTS for Inhibitors of human tyrosyl-DNA phosphodiesterase 1 (TDP1): qHTS in cells in presence of CPT; further: nearly all actives have a fitted effect of over 55% in size
Details: chicken DT40 Tdp1-/-;hTDP1 cells + 20 nM CPT, ATP luminescence, 48 h; activity change, negative = growth inhibition: at 46.2 µM (top of the series) unless noted
Outline: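 Chicken DT40 Tdp1-/- cells stably complemented with human TDP1 were seeded at 400 cells/well in medium containing 20 nM camptothecin, exposed to pin-transferred compounds, and grown at 37 °C for at least 48 hr. Viability was read as ATP luminescence.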
On the % scale 0 is the no-effect control and ±100 the full control effect; potency means the concentration at half of the fitted maximal effect; tags describe the fitted curve by direction and shape.

| Compound | Potency | activity change, negative = growth inhibition |
| --- | --- | --- |
| CC[C@@H]1CN2CC[C@@H]1C[C@H]2[C@H](O)c1ccnc2ccc(OC)cc12 | inconclusive [inhibitor, partial curve, poor fit] | – |
| Cc1cc(C(=O)OCC(=O)Nc2cccc(F)c2)c(C)n1C1CC1 | inconclusive [inhibitor, single point] | – |
| FC(F)(F)c1cccc(-n2nnnc2C2(N3CCOCC3)CCCCC2)c1 | inconclusive [inhibitor, single point] | – |
| COc1ccc(C(Nc2cccc([N+](=O)[O-])c2)P(=O)(OC(C)C)OC(C)C)cc1 (stereo not given) | active: 16.4 µM | – |
| Cc1cc(C(=O)CS(=O)(=O)c2ccccc2)cc(C)c1OC(=O)N(C)C | inconclusive [inhibitor, single point] | – |
| O=C1OC(c2ccc(Br)cc2)=N/C1=C\N1CC2CC(C1)c1cccc(=O)n1C2 (stereo not given) | inconclusive [inhibitor, single point] | – |
| CC(C)c1nc2oc3c(NCc4ccccn4)ncnc3c2c2c1COC(C)(C)C2 | inconclusive [inhibitor, single point] | – |
| Cc1cccc(-n2nc(C)c3c2NC(=O)CSC3c2ccccc2Cl)c1 (stereo not given) | inconclusive [inhibitor, single point] | – |
| O=C(c1ccccc1)c1cn(CC(=O)N2CCOCC2)c2ccccc12 | inconclusive [inhibitor, single point] | – |
| Cc1cc(C)cc(OCC(=O)Nc2ccc(-c3nc4ccccc4s3)cc2)c1 | active: 10.3 µM | – |
| CN1CCc2nc(SCC(=O)OC(C)(C)C)c(C#N)cc2C1 | inconclusive [inhibitor, single point] | – |
| CC(C)N1C(=O)/C(=C/C=C/c2ccco2)C(=O)N(Cc2ccco2)C1=O | active: 16.4 µM | – |
| COC(=O)N(c1ccccc1)P1(=S)OCCO1 | inconclusive [inhibitor, single point] | – |
| Cc1ccc(S(=O)(=O)N(C)C[C@@H]2Oc3ncc(Br)cc3C(=O)N([C@H](C)CO)C[C@@H]2C)cc1 | inconclusive [inhibitor, single point] | – |
| CCOc1ccc(N=C(C)Nc2ccc(OCC)cc2)cc1 | inconclusive [inhibitor, single point] | – |
| OC(c1ccccc1)(c1ccccc1)c1ccncc1 | inconclusive [inhibitor, single point] | – |
| Cc1[nH]c2ccccc2c1C1=CCNCC1 | inconclusive [inhibitor, single point] | – |
| C[C@H]1O[C@@H](O[C@H]2[C@@H](O)C[C@@H](O[C@H]3[C@@H](O)C[C@H](O[C@H]4CC[C@@]5(C)[C@H](CC[C@@H]6[C@@H]5CC[C@]5(C)[C@@H](C7=CC(=O)OC7)CC[C@]65O)C4)O[C@@H]3C)O[C@@H]2C)C[C@H](O)[C@@H]1O | active: 0.316 µM | – |
| CCOc1ccc(CN(CCc2ccc3c(c2)OCO3)Cc2ccc(C)cc2)cc1 | inconclusive [inhibitor, single point] | – |
| CC(N)C(=O)NC1C2C(=C(O)CC(O)C2O)C(=O)OC1(C)C(Cl)Cl (stereo not given) | active: 0.184 µM | – |
| Cn1c(=O)oc2cc(S(=O)(=O)N3CCCC(C(=O)Nc4ccccn4)C3)ccc21 (stereo not given) | inconclusive [inhibitor, single point] | – |
| CC(C)(C)c1o[nH]c(=O)c1CC(N)C(=O)O (stereo not given) | inactive | – |
| O=C(COc1ccccc1)N1CCN(C/C=C/c2ccccc2)CC1 | active: 16.4 µM | – |
| O=C(O)c1[nH]n(-c2ccc(S(=O)(=O)O)cc2)c(=O)c1N=Nc1ccc(S(=O)(=O)O)cc1 | inconclusive [inhibitor] | – |

| Compound | Potency | activity change, negative = growth inhibition |
| --- | --- | --- |
| CC(=O)OC1(Cc2ccccc2)CN2CCC1c1ccccc12 (stereo not given) | inconclusive [inhibitor, single point] | – |
| O=C(O[C@H]1CN2CCC1CC2)N1CCc2ccccc2[C@@H]1c1ccccc1 | inconclusive [inhibitor, single point] | – |
| O=P(O)(Oc1ccccc1)OC(c1ccccc1)C(F)(F)C(F)(F)F (stereo not given) | inactive | – |
| COc1ccc(-n2c(O)c(/C=C3\C=Nc4ccc(Br)cc43)c(=O)[nH]c2=O)c(OC)c1 | inconclusive [inhibitor, single point] | – |
| O=C(Cn1c(=O)nc(-c2ccccc2)c2cc(Cl)ccc21)NCc1ccccc1 | active: 7.31 µM | – |
| COc1ccccc1-n1c(-c2ccccc2F)nc2ccccc2c1=O | inconclusive [inhibitor, single point] | – |
| CC(=O)NN1C(=O)c2ccccc2NC1c1cccnc1 (stereo not given) | inactive | – |
| CCOC(=O)[C@]12Cc3cc(OC)ccc3[C@H]1N(C1CCCCC1)C(=O)c1ccccc12 | active: 2.06 µM | – |
| C[C@H]1C(=O)O[C@@H]2CCN3CC=C(COC(=O)[C@](C)(O)[C@]1(C)O)[C@H]23 | inactive and active: 11.6 µM | – |
| C=C1C(=O)O[C@@H]2C[C@@H](C)[C@@H]3C=CC(=O)[C@@]3(C)[C@@H](OC(=O)CC(=O)O[C@H]3[C@@H]4C(=C)C(=O)O[C@@H]4C[C@@H](C)[C@@H]4C=CC(=O)[C@]43C)[C@H]12 | active: 0.058 µM | – |
| CCCN1C[C@H](C)N([C@H](c2ccc(C(=O)N(CC)CC)cc2)c2cccc(OC)c2)C[C@H]1C | inactive | – |
| CCOC(=O)CCCc1cc[c]([Sb](=[O])([OH])[OH])cc1 | inactive | – |
| CN1C(=O)C(=Cc2cn(CC#N)c3ccccc23)C(=O)N(C)C1=O | inactive | – |
| Cc1oc(-c2ccc(Cl)cc2)nc1CS(=O)CC(=O)N1CCC2(CC1)OCCO2 (stereo not given) | inactive | – |
| Oc1cc2c(cc1CN1CCN(c3ccccc3F)CC1)OCO2 | inactive | – |
| COC(=O)[C@@H]1N=C(c2ccc(OC)cc2)O[C@]12C(=O)N(Cc1ccccc1)c1ccccc12 | inconclusive [inhibitor, single point] | – |
| COc1ccc(Cl)cc1NC(=O)C1CCN(c2nnc(C)c3c(C)n(-c4ccccc4)nc23)CC1 | active: 18.4 µM | – |
| CCC(=Nc1ccc(Cc2ccncc2)cc1)c1c(O)n(C)c(=O)n(C)c1=O | active: 5.01 µM | – |
| CC(C)=CCCC1(C)C=Cc2c(O)c3c(c(CC=C(C)C)c2O1)OC12C(=CC4CC1C(C)(C)OC2(C/C=C(/C)C(=O)O)C4O)C3=O (stereo not given) | active: 4.61 µM | – |
| CCOc1ccc(C(=O)Nc2cccc(C(=O)OCc3cc(=O)n4nc(C5CC5)sc4n3)c2)cc1 | inconclusive [inhibitor, partial curve] | – |
| NC(N)=N/N=C/c1ccc(N(c2ccccc2)c2ccccc2)cc1 | active: 16.4 µM | – |
| COc1ccc(OC)c(CC(=O)N(C)C2CCCN(Cc3ccccc3F)C2)c1 (stereo not given) | inactive | – |
| COc1ccc(C2SCC(=O)Nc3c2c(=O)[nH]n3C2CCCCCC2)cc1 (stereo not given) | – | inconclusive: -31.1% [inhibitor] |
| CC(C)CN1CC2(CCN(C(=O)Oc3ccccc3)CC2)C1 | inactive | – |

| Compound | Potency | activity change, negative = growth inhibition |
| --- | --- | --- |
| COC(=O)C1=C(c2cc3ccccc3s2)C[C@@H]2CC[C@H]1N2C(=O)N1CCC(O)CC1 | active: 14.6 µM | – |
| CC(Cc1ccccc1Sc1ccc(O)cc1)N(C)C (stereo not given) | inconclusive [inhibitor, single point] | – |
| c1cc(C2N3CCCN2CC3)ccn1 (stereo not given) | inactive | – |
| COc1cc2c(cc1OC)-c1c(OC)c(OC)cc3c1[C@H](C2)N(C)CC3 | inconclusive [inhibitor, single point] | – |
| COc1ccc(CNCCc2c[nH]c3ccccc23)c(OC)c1C | active: 5.8 µM | – |
| COC(=O)C1=C(c2cccc(OCc3ccccc3)c2)C[C@@H]2CC[C@H]1N2C(=O)NCCCOC(C)C | active: 20.6 µM | – |
| COc1cccc(C(=O)NCc2nc(-c3cccc(NC(=O)c4ccoc4C)c3)oc2C)c1OC | inconclusive [inhibitor, single point] | – |
| O=C(COc1ccc(Cl)cc1)N1CCN(Cc2ccc([N+](=O)[O-])cc2)CC1 | inconclusive [inhibitor, single point] | – |
| O=C(Nc1ccc(Cl)cc1)N1CC2CC(C1)c1cccc(=O)n1C2 (stereo not given) | inactive | – |
| CC(O)(CS(=O)(=O)c1ccccc1)C(=O)Nc1ccc(C(F)(F)F)cc1 (stereo not given) | inactive | – |
| C=CCNC(=S)Nc1ccc(OC(=O)Nc2ccc(Cl)c(Cl)c2)cc1 | inconclusive [inhibitor, single point] | – |
| ClC=C(Cl)Cl | inactive | – |
| C=C(c1ccccc1)P(=O)(O)O | inactive | – |
| COc1ccc(-n2c(C)nc3cc(C(=O)N4CCC5(CC4)OCCO5)ccc32)cc1 | inconclusive [inhibitor, single point] | – |
| CC[C@@H]1CN2CCc3cc(OC)c(OC)cc3[C@@H]2C[C@@H]1C[C@H]1NCCc2cc(OC)c(OC)cc21 | inactive | – |
| CCC1CN1P(=O)(N1CCCC1)N1CC1CC (stereo not given) | inconclusive [inhibitor, partial curve] | – |
| COc1c(O)ccc2c1-c1c3c(cc4c1C(C2)N(C)CC4)OCO3 (stereo not given) | inactive | – |
| COC(=O)C1=C(c2cccc(OCc3ccccc3)c2)C[C@@H]2CC[C@H]1N2C(=O)NCc1ccc(F)cc1 | inconclusive [inhibitor, single point] | – |
| COc1ccc2c(c1)c(C(=O)C(C)N1CCCCC1)c(C)n2C (stereo not given) | inactive | – |
| Cc1c(CCC(=O)N2CCCCC2)c(=O)oc2cc3occ(C(C)(C)C)c3cc12 | active: 11.6 µM | – |
| CN(C)c1ccc(C=C2C(=O)NC(=S)NC2=O)cc1 | active: 5.62 µM and active: 8.2 µM | – |
| Cc1c(C=C2C(=O)N(C)C(=S)N(C)C2=O)c2ccccc2n1CC(=O)NCC1CCCO1 (stereo not given) | inconclusive [inhibitor, single point] | – |
